Hit rate of the full screen: of about 410,000 compounds, about 5,000 (1.2%) were called active. This list was built around the results that the source calls inconclusive (neither active nor inactive); the mix of calls is not that of the screen. The call rests on the fitted dose curve; in most records, active means well fitted inhibition curve with a large enough effect; inconclusive means small, poorly fitted or top-dose-only effect; inactive means no such curve, though single readings can be large or run the other way. Potencies of inconclusive entries are doubtful fits and often do not repeat.
assay: qHTS for Inhibitors of TGF-b; conditions: HepG2 CAGA-GFP TGF-b/SMAD3 reporter, GFP fluorescence, 18 h, TGF-beta stimulated, 500 pg/mL final; series mostly up to 46.1 µM; activity, negative = inhibition: at the top concentration; further: nearly all actives have a fitted effect of over 65% in size
Summary of the method: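 Inhibition of TGF-beta-driven CAGA-GFP reporter expression in HEPG2 cells is measured by cellular GFP fluorescence after 18 h stimulation with 500 pg/mL recombinant TGF-beta in 1% FBS medium at 37 degrees C.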
On the % scale 0 is the no-effect control and ±100 the full control effect; potency means the concentration at half of the fitted maximal effect; tags describe the fitted curve by direction and shape.

Compound	Potency	activity, negative = inhibition
Cc1ccc(Cl)cc1N1CCN(C(=O)c2cc(S(=O)(=O)N3CCCC3)c[nH]2)CC1	inconclusive: 35.5 µM [inhibitor, single point]	–
CCc1ccc(NC(=O)C2CCCN(S(=O)(=O)c3ccc(F)cc3)C2)cc1 (stereo unspecified)	inconclusive: 15.8 µM [inhibitor, single point]	–
COc1ccc(OC)c(/C=N/NC(=O)CCN2CCN(C(c3ccccc3)c3ccccc3)CC2)c1	–	inactive: -0.884%
CCc1nnc(SCC(=O)N(CC)c2ccccc2)c2cc3oc(C)cc3n12	inconclusive: 15.8 µM [inhibitor, single point]	–
CC(=O)Nc1ccc(S(=O)(=O)NCCC(=O)OCc2csc(CC(=O)Nc3ccccc3C)n2)cc1	–	inactive: -38.6%
O=C(CCN1CCN(CCO)CC1)Nc1cccc(Br)c1	–	inactive: 0%
Cc1cc(NC(=O)C(C)SCC(=O)N(C)CC(=O)Nc2ccc(Br)cc2C)no1 (stereo unspecified)	–	inactive: 0.0877%
COc1cc(/C(C)=N\NC(N)=S)cc(OC)c1OC	–	inactive: -1.9%
Cc1ccccc1OCC(=O)Nc1ccc(S(=O)(=O)N2CCCC2)cc1	inconclusive: 12.6 µM [inhibitor, single point]	–
O=C1c2ccccc2[C@@H]2C[C@H]3O[C@H]3CCN12	–	inactive: 12.8%
O=C(CSc1nc(=O)n(Cc2ccco2)c2c1CCC2)Nc1ccccc1C(F)(F)F	inconclusive: 15.8 µM [inhibitor, single point]	–
O=C(COc1ccccc1)Nc1ccc(S(=O)(=O)Nc2ccccn2)cc1	–	inactive: 13.2%
CCCC#Cc1ccc2c(c1)O[C@H](CN(C)S(=O)(=O)c1cccc(OC)c1)[C@H](C)CN([C@H](C)CO)S2(=O)=O	inconclusive: 15.8 µM [inhibitor, single point]	–
NC(CO)c1csc(NC(=O)Nc2ccccc2Cc2ccccc2)n1 (stereo unspecified)	–	inactive: 15.5%
COc1ccc(C2C(C(=O)c3cccs3)=C(O)C(=O)N2c2nnc(C)s2)cc1OC (stereo unspecified)	–	inactive: -1.05%
O=C(COc1ccc(C(=O)c2ccc(F)cc2)cc1)NCc1ccc(F)cc1	inconclusive: 11.2 µM [inhibitor, partial curve, poor fit]	–
CNC(=S)NN=C(C)CCCC(C)=NNC(=S)NC	active: 4.47 µM	–
Cc1cccc(C(=O)NC(=S)Nc2ccc(N3CCOCC3)cc2)c1	–	inactive: -3.65%
CN(C)C(=O)N1CCC(C(=O)NCc2cccs2)CC1	–	inactive: 12.7%
Cc1ccc(NC(=O)C2CCN(C(=O)OC(C)(C)C)CC2)cc1S(=O)(=O)N1CCCCC1	inconclusive: 10 µM [inhibitor, partial curve]	–
CCCCCC(=O)N(Cc1ccccc1)c1c(N)n(CCOC)c(=O)[nH]c1=O	–	inactive: -4.21%
Cc1cc(NC(=S)Nc2ccccc2)ccc1Br	inconclusive: 5.62 µM [inhibitor, full curve]	–
Oc1cc(-c2ccc(N3CCCCC3)nc2)cc2cccnc12	inconclusive: 17.8 µM [inhibitor, single point]	–
COc1ccc(Cl)cc1C(=O)NCc1nnnn1-c1ccccc1	inconclusive: 6.31 µM [inhibitor, single point]	–

Compound	Potency	activity, negative = inhibition
CCC(c1nnc(SCC(=O)Nc2ccc(C(N)=O)cc2)n1Cc1ccccc1)N(C)C (stereo unspecified)	–	inactive: -7.67%
O=C(c1cc(COc2ccc(F)cc2Cl)on1)N1CCC(OCc2cccnc2)CC1	inconclusive: 35.5 µM [inhibitor, single point]	–
CCc1ccc(NC(=O)C(=O)NCC(c2cccnc2)N2CCc3ccccc3C2)cc1 (stereo unspecified)	inconclusive: 17.8 µM [inhibitor, partial curve, poor fit]	–
C=CCn1c(=O)c(C(=O)NCc2ccc(Cl)cc2)c(O)c2ccccc21	–	inactive: -0.506%
COc1nnc(-c2ccc(N3CCCCC3)c(NC(=O)c3ccccc3Cl)c2)c2ccccc12	inconclusive: 2.51 µM [inhibitor, partial curve, poor fit]	–
COCc1cc(C)nc2c1C(=O)NC(c1ccc(Br)cc1)N2Cc1ccccc1 (stereo unspecified)	–	inactive: 1.64%
Cc1ccc(C)c(S(=O)(=O)N2CCN(C(=O)c3cc(S(=O)(=O)NCc4ccccc4)ccc3C)CC2)c1	inconclusive: 11.2 µM [inhibitor, partial curve, poor fit]	–
Cc1ccccc1NC(=O)C(C)c1ccc(-c2ccccc2)c(F)c1 (stereo unspecified)	inconclusive: 35.5 µM [inhibitor, single point]	–
CCOC(=O)C(C)Sc1ncc(-c2ccc(Cl)cc2)cn1 (stereo unspecified)	–	inactive: 5.93%
N/C(=N\N=C/c1ccc(Br)cc1)N/N=C\c1ccc(Br)cc1	inconclusive: 10 µM [inhibitor, partial curve]	–
O=C(Cc1cccc([N+](=O)[O-])c1)Nc1ccc(C(=O)N2CCCCC2)cc1	inconclusive: 2.51 µM [inhibitor, partial curve]	–
Cc1nc2ccccc2c2oc(C(=O)NCC3COc4ccccc4O3)cc12 (stereo unspecified)	inconclusive: 10 µM [inhibitor, partial curve, poor fit]	–
CN(c1ccccc1)S(=O)(=O)c1ccc(C(=O)NCc2ccccc2F)cc1	–	inactive: -1.1%
CS(=O)(=O)c1ccccc1C(=O)Nc1cc(Cl)ccc1-n1cncn1	inconclusive: 1.12 µM [inhibitor, partial curve, poor fit]	–
COc1cc(C(=O)Nc2nc(-c3ccc(F)cc3)cs2)ccc1OCC(=O)N1CCOCC1	inconclusive: 20 µM [inhibitor, single point]	–
COC(=O)c1cc(NC(=O)N2c3ccccc3Sc3ccccc32)cc(C(=O)OC)c1	inconclusive: 11.2 µM [inhibitor, partial curve, poor fit]	–
CCCCn1c(=O)c2oc3ccccc3c2n(Cc2ccccc2C)c1=O	–	inactive: -9.62%
CCOC(=O)c1[nH]c2c(c1Cc1ccccc1OC)C(=O)CC(c1ccccc1)C2 (stereo unspecified)	–	inactive: -0.0636%
COc1ccc(C(=O)C(CN2CCOCC2)c2ccccc2)cc1F (stereo unspecified)	active: 3.98 µM	–
O=C1c2ccccc2NC(c2c(Cl)cccc2Cl)N1Cc1ccccc1 (stereo unspecified)	inconclusive: 35.5 µM [inhibitor, single point]	–
CC1(c2ccc(Cl)cc2)NC(=O)N(CC(=O)N2CCc3ccccc3C2)C1=O (stereo unspecified)	inconclusive: 25.1 µM [inhibitor, single point]	–
CC1CC(C)CN(CC(=O)NC(c2ccccc2)c2ccccc2)C1 (stereo unspecified)	inconclusive: 22.4 µM [inhibitor, single point]	–
COc1ccc(N2CCN(C(=O)C3CCN(S(=O)(=O)c4ccc(F)cc4)CC3)CC2)cc1	inconclusive: 14.1 µM [inhibitor, partial curve]	–
O=C(Nc1ccc(Cl)cc1N1CCOCC1)C1CCCO1 (stereo unspecified)	–	inactive: 24.5%

Compound	Potency	activity, negative = inhibition
Cc1ccc(C)c(N2CCN(C(=O)c3ccc4c(=O)n(CCc5ccccc5)c(=O)[nH]c4c3)CC2)c1	inconclusive: 1.12 µM [inhibitor, full curve]	–
COCCc1nn2c(=O)cc(COC(=O)c3ccccc3C)nc2s1	–	inactive: -0.885%
COc1ccccc1/C=C/C=N/NC(=O)c1cc(-c2ccc(C)o2)[nH]n1	inconclusive: 17.8 µM [inhibitor, single point]	–
CC1=C(C(=O)N2CCOCC2)CC(CC(=O)NC2CCCCC2)C(=O)N1Cc1ccccc1 (stereo unspecified)	–	inactive: 8.06%
CCOc1cc(C(=O)Nc2ccc(S(=O)(=O)N3CCCCC3)cc2)ccc1OCC(=O)N1CCOCC1	–	inactive: 0%
Cc1nc2scc(C)n2c(=O)c1S(=O)(=O)Nc1ccc(OC(F)(F)F)cc1	–	inactive: -15.8%
COc1ccc(CNC(=O)C(C)Sc2nc3ccccc3c(=O)n2CC2CCCO2)cc1 (stereo unspecified)	–	inactive: -7.16%
CCOc1ccc2nc(NC(=O)c3cnc(C)cn3)sc2c1	inconclusive: 5.62 µM [inhibitor, single point]	–
COc1cc(/C=N/n2c(COc3ccccc3)n[nH]c2=S)cc(Br)c1O	–	inactive: 1.35%
O=C(NCc1ccccc1)c1ccc(S(=O)(=O)Nc2cccc(C(F)(F)F)c2)cc1	inconclusive: 22.4 µM [inhibitor, single point]	–
O=C1c2ccccc2C(=O)N1CCCCSc1nnc(-c2ccc(OC(F)F)cc2)o1	–	inactive: 7.35%
CCN(CC)c1ccc(/C=N/N=C(c2ccccc2)c2ccccc2)c(O)c1	–	inactive: -0.277%
CCOc1cc(NC(=O)c2ccccn2)c(OCC)cc1NC(=O)CC(C)C	inconclusive: 35.5 µM [inhibitor, single point]	–
COc1ccccc1N(CC(=O)N/N=C/c1ccc(OCC(=O)NCc2ccco2)cc1)S(=O)(=O)c1ccc(C)cc1	–	inactive: 10.2%
CC(=O)c1ccc(NC(=O)C2=CC(c3ccc(C)cc3)=NS(=O)(=O)N2C)cc1	inconclusive: 12.6 µM [inhibitor, partial curve, poor fit]	–
CCOC1=C2[C@H](c3ccccc3Cl)N(S(=O)(=O)c3ccc(C)cc3)C[C@H]2C(C#N)(C#N)C(C#N)(C#N)C1	inconclusive: 20 µM [inhibitor, single point]	–
O=C(O)/C=C/c1cccc2c1OCCO2	–	inactive: -12.8%
COc1ccc(CN2C(=O)C(CC(C)C)Nc3ncnc(N4CCN(c5ccccc5)CC4)c32)cc1 (stereo unspecified)	inconclusive: 10 µM [inhibitor, partial curve]	–
Cc1cccnc1C(NC(=O)C1CCN(CCOc2ccc(F)cc2)CC1)c1ccc(F)cc1 (stereo unspecified)	–	inactive: -10.2%
COc1ccc(C(=O)NCCn2cc(SCC(N)=O)c3ccccc32)cc1	–	inactive: 2.17%
COc1ccc(-n2c(SCc3ccccc3F)nc3c([nH]c4ccccc43)c2=O)cc1OC	inconclusive: 35.5 µM [inhibitor, single point]	–
O=C(CSc1c2c(nc3cc(Cl)ccc13)CCCC2)N1CCN(c2ccccc2)CC1	inconclusive: 35.5 µM [inhibitor, single point]	–
N#C/C(=C/c1cn(-c2ccccc2)nc1-c1cccc(OCc2ccccc2)c1)C(=O)NCCCn1ccnc1	inconclusive: 31.6 µM [inhibitor, single point]	–

From PubChem BioAssay AID588855 (National Center for Advancing Translational Sciences (NCATS), 2011)
